Out of some 410,000 compounds screened, about 5,000 (1.2%) were called active. Inconclusive means that the source gave no clear call. Such entries were picked first, then a sample of the others. Calls follow the shape of the dose curve; as a rule, active = well fitted inhibition curve with a large enough effect; inconclusive = small, poorly fitted or top-dose-only effect; inactive = no such curve, though single readings can be large or run the other way. A potency beside an inconclusive call is a rough fit, not a confirmed value.
Assay: qHTS for Inhibitors of TGF-b; also: nearly all actives have a fitted effect of over 65% in size
Details: HepG2 CAGA-GFP TGF-b/SMAD3 reporter, GFP fluorescence, 18 h, TGF-beta stimulated, 500 pg/mL final; series mostly up to 46.1 µM; activity, negative = inhibition: at the top concentration
Procedure, shortened: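 Cell-based qHTS in HEPG2 carrying a CAGA-GFP Smad reporter; compounds added before 500 pg/mL final TGF-beta, 18 h incubation at 37 degrees C, GFP fluorescence quantified per cell by imaging cytometry.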
% is scaled to controls: 0 for no effect and ±100 for the full control effect; potency is read from the fitted curve at half-maximal effect; tags tell the direction and shape of the fitted curve.

| SMILES | Potency | activity, negative = inhibition |
| --- | --- | --- |
| CCOc1ccc(NC(=O)c2c(Nc3ccccc3C)sc(C(=O)c3ccc(Cl)cc3)c2N)cc1 | inconclusive: 35.5 µM [inhibitor, single point] |  |
| CN(Cc1ccccc1)C(=O)c1cccc(NC(=O)Cc2cccc(NC(=O)C3CCN(C(=O)C4CCC4)CC3)c2)c1 | inconclusive: 8.91 µM [inhibitor, partial curve] |  |
| CNC(=O)c1ccc(C)c(NC(=O)C2=C(C)OCCS2)c1 |  | inactive: 3.49% |
| COc1ccc(S(=O)(=O)N2CCN(C(=O)Nc3ccccc3OC)CC2)cc1 |  | inactive: 4.67% |
| O=[N+]([O-])c1cccc(/C=N/Nc2nc(N3CCCCC3)nc(N3CCCCC3)n2)c1 |  | inactive: 15.2% |
| O=c1cc(CCl)nc2sc3ccccc3n12 | inconclusive: 22.4 µM [inhibitor, single point] |  |
| Cc1cccc(CCNC(=O)c2ccc(CSCc3cccc(Cl)c3)o2)c1 | inconclusive: 20 µM [inhibitor, partial curve, poor fit] |  |
| COC(=O)C(CCSC)NC(=O)c1cccc([N+](=O)[O-])c1 (stereo not given) | inconclusive: 15.8 µM [inhibitor, single point] |  |
| O=C(O)CCCCN1C(=O)/C(=C\c2ccc(OCc3ccccc3)c(OCc3ccccc3)c2)SC1=S |  | inactive: 0.784% |
| COc1ccc(C2CC(c3ccccc3)=NN2C(=O)CN2N=NC3C(=O)N(c4cccc(F)c4)C(=O)C32)cc1 (stereo not given) |  | inactive: -4.29% |
| NCCSC1CC(=O)N(Cc2ccc(F)cc2)C1=O (stereo not given) | inconclusive: 5.62 µM [inhibitor, single point] |  |
| COc1ccc(Oc2ccc(/C=C/C(=O)c3ccc(O)cc3)cc2[N+](=O)[O-])cc1 | active: 15.8 µM |  |
| Cc1[nH]n(-c2ccccc2)c(=O)c1/C=N/N(C)c1ccccc1 | inconclusive: 35.5 µM [inhibitor, single point] |  |
| COC(=O)Cn1cc(/C=C/[N+](=O)[O-])c2ccccc21 | inconclusive: 17.8 µM [inhibitor, single point] |  |
| O=C(NCc1ccccc1Cl)C(=O)NCC(c1cccs1)S(=O)(=O)c1ccccc1 (stereo not given) | inconclusive: 0.794 µM [inhibitor, full curve, poor fit] |  |
| COc1cccc2cc(-c3n[nH]c(=S)n3C)oc12 | inconclusive: 0.0891 µM [inhibitor, full curve, poor fit] |  |
| Cc1ccc(-n2c(SCc3ccccc3C)nc3[nH]ncc3c2=O)cc1C | inconclusive: 35.5 µM [inhibitor, single point] |  |
| COc1ccc(N2CCN(C(=O)CCNC(=O)c3ccc(C(C)(C)C)cc3)CC2)cc1 |  | inactive: -19% |
| CCC(C)(C)NC(=S)Nc1ccc(-c2nc3ccc(C)cc3s2)cc1 | inconclusive: 1.41 µM [inhibitor, partial curve, poor fit] |  |
| Nc1nc(N)c2cc(CNc3ccc(Cl)c(Cl)c3)ccc2n1 | inconclusive: 35.5 µM [inhibitor, single point] |  |
| OC(CNc1ccccc1)COc1ccc(OCC(O)CNc2ccccc2)cc1 (stereo not given) | inconclusive: 28.2 µM [inhibitor, single point] |  |
| CCOc1ccccc1N1CC(c2nc3ccccc3n2CCOc2ccccc2OC)CC1=O (stereo not given) |  | inactive: -0.0131% |
| CCOC(=O)c1[nH]c(=O)[nH]c1CNc1ccccc1C#N |  | inactive: 1.41% |
| O=C1S/C(=C\c2ccc(N3CCOCC3)o2)C(=O)N1Cc1c(F)cccc1Cl |  | inactive: 17.1% |

| SMILES | Potency | activity, negative = inhibition |
| --- | --- | --- |
| Cc1cc(C)c2nc(NNC(=O)c3ccc(S(=O)(=O)N4CCc5ccccc5C4)cc3)sc2c1 | inconclusive: 12.6 µM [inhibitor, partial curve, poor fit] |  |
| Nc1ccn(C(C=O)CC(C=O)CO)c(=O)n1 (stereo not given) |  | inactive: 21.5% |
| Cc1ccc(NC(=S)NCCSc2ccc(Cl)cc2)c(C)c1 |  | inactive: 0% |
| O=C1C=CC(=Nc2ccc3c(c2)Cc2cc(F)ccc2-3)O1 |  | inactive: -3.23% |
| CCCC(O)(CCC)C(=O)NN(C(=O)CCl)c1cccc(C)c1 | inconclusive: 22.4 µM [inhibitor, partial curve, poor fit] |  |
| CC(C)N1CCC2(CC1)N=C(c1ccc3c(c1)OCO3)CC(c1cc(Cl)ccc1O)N2 (stereo not given) | inconclusive: 11.2 µM [inhibitor, partial curve, poor fit] |  |
| Cc1ccccc1-c1noc(-c2cc(C(C)C)[nH]n2)n1 | inconclusive: 25.1 µM [inhibitor, single point] |  |
| CCc1csc(CCNC(=O)C2CCC(=O)N(CCOC)C2)n1 (stereo not given) |  | inactive: -0.238% |
| CCCCCCn1c(-c2cccs2)n[nH]c1=S |  | inactive: -20.7% |
| Cc1ccc(NS(=O)(=O)c2cc(C(=O)Nc3cccc(N(C)S(C)(=O)=O)c3)ccc2C)c(C)c1 | inconclusive: 11.2 µM [inhibitor, partial curve] |  |
| O=C1NC(=Nc2ccc(Cl)cc2)SC1Cc1cc(Cl)ccc1Cl (stereo not given) | inconclusive: 25.1 µM [inhibitor, single point] |  |
| COC(=O)c1cccc(NC(=O)c2ccc3c(c2)C(=O)N(C(C)(C)C)C3=O)c1 |  | inactive: 1.72% |
| Cc1cc2ccccn2c1C(=O)c1ccccc1Br | inconclusive: 22.4 µM [inhibitor, single point] |  |
| Cc1cc(Nc2ccc(Cl)cc2)n2cnnc2n1 |  | inactive: -3.32% |
| CC(C)C(=O)c1cc2c(cc1NC(=O)c1ccccc1F)OCCO2 | inconclusive: 17.8 µM [inhibitor, single point] |  |
| O=C(CSc1nnc(C2CC2)n1Cc1ccccc1)c1cc2ccccc2o1 | inconclusive: 5.01 µM [inhibitor, partial curve, poor fit] |  |
| COc1ccc(C(=O)NCc2nnc(SCC(=O)Nc3ccc(F)cc3)n2-c2ccccc2)cc1 |  | inactive: -23.8% |
| Cc1ccc(C(=O)OCn2ncc(Cl)c(Cl)c2=O)cc1 | inconclusive: 22.4 µM [inhibitor, partial curve, poor fit] |  |
| COc1ccc2c(c1)CCCN2S(=O)(=O)c1ccc(Cl)cc1 | inconclusive: 17.8 µM [inhibitor, single point] |  |
| CCc1ccc(/C=C2\Oc3cc(OS(C)(=O)=O)ccc3C2=O)cc1 | inconclusive: 35.5 µM [inhibitor, single point] |  |
| Cc1ccc(C)c(NS(=O)(=O)c2ccccc2C)c1 |  | inactive: -3.41% |
| CN(C)S(=O)(=O)c1ccc(N2CCCC2)c(C(=O)Nc2nc3ccc(F)cc3s2)c1 | inconclusive: 35.5 µM [inhibitor, single point] |  |
| COc1ccc(Cl)cc1NC(=O)c1c(NCc2cccs2)sc2c1CCCC2 | inconclusive: 35.5 µM [inhibitor, single point] |  |
| Cc1cccc(-n2ncc(C(=O)Nc3ccc4c(c3)OCO4)c2C2CCN(C(=O)OC(C)(C)C)CC2)c1 | inconclusive: 17.8 µM [inhibitor, partial curve, poor fit] |  |

| SMILES | Potency | activity, negative = inhibition |
| --- | --- | --- |
| CN(C)c1ccc(NC(=O)CSC2=Nc3ccccc3C3=NC(CC(=O)NCc4ccc5c(c4)OCO5)C(=O)N23)cc1 (stereo not given) | inconclusive: 35.5 µM [inhibitor, single point] |  |
| Cc1cc(C)n(-c2ncc3c(n2)N(CCO)CCOC3=O)n1 |  | inactive: 1.13% |
| Cc1cc(C)nc(NC(=S)Nc2cccc(Cl)c2Cl)c1 | inconclusive: 5.62 µM [inhibitor, partial curve] |  |
| O=C(C1CC(=O)N(c2ccccc2)C1)N1CCN(c2ccc(F)cc2)CC1 (stereo not given) |  | inactive: -51% |
| COc1ccc(NS(=O)(=O)c2ccc(C)c(C(=O)N3CC(C)OC(C)C3)c2)cc1 (stereo not given) |  | inactive: -11.8% |
| Fc1cccc(Cc2c(-c3ccco3)nc3ccc(Br)cn23)c1 | inconclusive: 11.2 µM [inhibitor, partial curve, poor fit] |  |
| Cc1ccccc1CS(=O)(=O)c1ncc(Cl)c(C(=O)Nc2nnc(C(C)C)s2)n1 | inconclusive: 35.5 µM [inhibitor, single point] |  |
| O=C(Cc1ccc(Cl)cc1)NCC(=O)N1CCN(c2ccccc2)CC1 | inconclusive: 35.5 µM [inhibitor, single point] |  |
| COCC(=O)O[C@]1(CCN(C)CCCc2nc3ccccc3[nH]2)CCc2cc(F)ccc2[C@@H]1C(C)C | active: 12.6 µM |  |
| O=C(Nc1nnc(C2=COCCO2)o1)c1ccc(S(=O)(=O)N2CCCCC2)cc1 |  | inactive: -23.6% |
| CCCOc1ccc(C(=O)Nc2sc3c(c2C(=O)OCC)CCCCC3)cc1 |  | inactive: 2.7% |
| CN(C)C(/C=C/Nc1cccc([N+](=O)[O-])c1)=C(C#N)C#N | inconclusive: 14.1 µM [inhibitor, partial curve, poor fit] |  |
| C=CCN1C(=O)C(CC(=O)NCC)SC1=Nc1cc(Cl)ccc1Cl (stereo not given) |  | inactive: 16.5% |
| CCOc1ccc(CN(CC)C(=O)Cc2c[nH]c3ccccc23)cc1OC |  | inactive: 22.1% |
| CCc1ccc(CNC(=O)C2CCN(C(=O)c3ccc(-n4ccc5ccccc54)s3)CC2)cc1 | inconclusive: 11.2 µM [inhibitor, partial curve, poor fit] |  |
| Cc1ccc(-c2cc(C(F)F)n3ncc(C(=O)Nc4c(C)nn(Cc5c(Cl)cccc5Cl)c4C)c3n2)cc1 |  | inactive: -1.17% |
| CC(Sc1nnc(-c2ccc(Cl)cc2)n1N)C(=O)NCC1CCCO1 (stereo not given) | inconclusive: 5.01 µM [inhibitor, single point] |  |
| O=C(N[C@@H]1CCC(=O)N(CC[C@H](Sc2ccccc2)c2ccccc2)CC1)OCc1ccccc1 | inconclusive: 25.1 µM [inhibitor, single point] |  |
| COc1ccc(C(=O)C2CCCN(C(=O)c3cccc(Cn4cccn4)c3)C2)cc1F (stereo not given) |  | inactive: -26.6% |
| Cc1cc(-c2ccccc2)n2nc(C)c(-c3ccccc3)c2n1 | inconclusive: 2.51 µM [inhibitor, partial curve, poor fit] |  |
| CN(c1ccccc1C(=O)Nc1ccc2ccccc2c1)S(C)(=O)=O |  | inactive: -0.421% |
| O=C(NNc1c2ccccc2nc2ccccc12)c1ccc(O)cc1O | inconclusive: 28.2 µM [inhibitor, single point] |  |

Reference: PubChem BioAssay AID588855 (National Center for Advancing Translational Sciences (NCATS), 2011)
